Drawing on PubChem BioAssay (NCATS), this text covers Potency for one compound.

Records with an inconclusive call do not appear. Calls come from the whole dose curve; as a rule, active = well fitted inhibition curve with a large enough effect; inconclusive = small, poorly fitted or top-dose-only effect; inactive = no such curve, though single readings can be large or run the other way. For part of its entries the source gives two or more results. This is not the full list of results. An entry can have further records. The values listed for one entry repeat one measurement across runs, samples, wells, individuals or studies.

This assay can be described thus: Confirmatory screen NINDS Rhodamine qHTS for Zika virus inhibitors (AID 1347161). Note: nearly all actives have a fitted effect of over 60% in size. The following applies: purified enzyme assay, Rhodamine110 substrate fluorescence, 15 min. In a few lines:
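In 10 mM Tris-HCl pH 8.0 containing 0.01% Tween 20, linked NS2B-NS3 protease (25 nM final) is exposed to test compounds for 15 min. Cleavage of 1.5 microM Rhodamine110 substrate is tracked by fluorescence over 15 min.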
Potency is the fitted concentration of half-maximal effect.

On to `C=C1c2cccc(O)c2C(O)=C2C(=O)[C@]3(O)C(O)=C(C(N)=O)C(=O)[C@@H](N(C)C)[C@@H]3[C@@H](O)[C@H]12`, for which the Potency entry is “active: 1.56, 55.5, 49.4, 62.2 µM [separate samples]”.
